Whole data set: some 33,000 sequences, median “E-score (-0.5 to 0.5)” near -0.01, cut for the highest 2% near 0.26. The list shows a part of the results.
Molecular target: Ste12 (UniProt P13574)
Assay: PBM E-score (8-mer binding enrichment) (E-score (-0.5 to 0.5)); higher = stronger / more preferred TF binding; most listed sequences are background and not binding sites
Conditions: protein concentration: 200 nM; construct: GST-DNA-binding domain
Summary of the method: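 For each ungapped eight-base word taken together with its reverse complement, the Universal PBM Analysis Suite assigned an E-score. Binding data came from GST-tagged yeast transcription factors, applied at about 100-200 nM, on universal all-10-mer Agilent arrays made double-stranded by primer extension. Fluorescent anti-GST marked bound protein, and scans were normalised with masliner.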

Sequence	PBM E-score
ATCCTCAC	0.186
ATTGAAGA	0.00866
AATTCACT	0.101
AGCGCGCG	0.147
CGACCGTC	-0.173
ACAACCGA	0.122
ATTATGCC	0.0896
CAGACATG	0.0575
AGCTACCC	-0.277
GCGGCCAC	-0.113
CGGTCGCC	-0.184
CTACACCC	-0.094
GAGATTAC	0.0211
CGCACGGA	-0.0302
TCGCACCA	0.156
CGTGTAAC	0.0271
ATCCCTCC	-0.0296
TAGCTTGA	-0.0554
TAGTGCGA	0.0187
CCCTCGCG	-0.0522
GACGAAGA	-0.139
ATAATTGA	0.206

Sequence	PBM E-score
CTGAGGGC	-0.236
ATAAATAT	0.172
CGGTATCC	-0.11
ACCACACT	0.0251
TTACCCAA	0.0694
CACAATCA	-0.0771
GGATACAC	-0.298
AGACGCAT	0.0588
CCATAAAG	-0.0569
ATCTTGCC	0.0302
ATCCGCAC	0.154
TCCTCGAA	0.0457
GAAAATTC	0.13
GACTTAGC	-0.146
ACTTGTAG	-0.111
ACCTCGGC	0.0975
ACAGTGCC	-0.0356
CGTAAGGC	-0.206
CGTTCGCC	-0.0565
CAGGGGAA	-0.0529
GAACCGCC	-0.0508
TCCCCGGA	-0.0463

Sequence	PBM E-score
CTAGTTTC	0.235
ACCCGAAT	0.0189
AATTTTTC	0.181
CGCACTCC	-0.0593
CTGATAAC	-0.00387
ATCTAAAA	0.285
CCTAATGC	-0.204
ACGGAGCC	-0.131
AGGCGTAC	-0.239
AACGGACA	0.00811
TAATACTA	0.144
ACTGACTG	-0.122
CTCAGTTC	-0.0827
AGGCACGG	-0.038
CACACCTG	0.00651
ATAATGAG	0.074
GCCTACCA	-0.148
ATCCCTTA	-0.0888
TCTTCAAA	0.194
CCATGCTA	-0.13
ATCTGTCG	0.106
GCCGTCTA	0.0432

Sequence	PBM E-score
CATGTTGA	0.212
GCATAGTA	0.147
AAGACGTG	-0.0629
AGATTGAT	-0.0801
AACCAGTA	0.0683
GTGCATGA	-0.0676
ACCATAGA	-0.00452
CTCATCGC	-0.0762
CGTCGATC	0.0822
CTAACAAA	0.0819
TACACACA	0.0194
GCTAACAA	-0.046
GGCGTGCA	-0.24
AAGTCTTA	-0.21
GTAACAAC	0.15
AAACTGAT	0.217
GTGTGATA	0.122
AGGTTTAT	0.191
TACCCTAA	0.172
GTGCAACA	-0.182
